Laboratory results taken from PMC3424236, “Siderocalin/Lcn2/NGAL/24p3 Does Not Drive Apoptosis Through Gentisic Acid Mediated Iron Withdrawal in Hematopoietic Cell Lines” (PLoS ONE, 2012).

How the values were obtained:
human Scn = biological target: T1, human Scn (Homo sapiens, UniProt P80188); assay: Fluorescence quenching (FQ) binding assay; settings: pH 7.2, read-out: KD
T1 construct: made in house; host or cells: E. coli

Scn [1] = tested on: T2, Scn; assay: Filter retention (ultrafiltration) binding assay; settings: apo-Scn 10 µM, candidate siderophore 10 µM, pH 7.4, 60 min; Figure S2A
T2 construct: made in house; host or cells: E. coli

Scn [2] = settings: binding to Scn; cited from earlier work
[3] = Solution speciation of iron complexes (HYSS, UV/Vis spectroscopy); settings: [Fe3+] = 20 µM, [L] = 60 µM; calculated with HYSS, confirmed by UV/Vis

Row | Structure (SMILES) | Kd (human Scn; desferri ligand) [nM] | Kd (human Scn; mixtures of iron and ligand, Fe:L complex) [nM] | iron retention (Scn [1]) | Kd (Scn [2]) [nM] | formation of ferric complexes as a function of pH [3]
1 | O=C(O)c1cccc(O)c1O [2,3-DHBA, 2,3-dihydroxybenzoic acid] | 400 ± 10 | 0.101 ± 0.002 | greater than 50% |  | 
2 | O=C(N[C@H]1COC(=O)[C@@H](NC(=O)c2cccc(O)c2O)COC(=O)[C@@H](NC(=O)c2cccc(O)c2O)COC1=O)c1cccc(O)c1O [Ent, enterobactin] |  |  | greater than 50% |  | 
3 | O=C(NCCN(CCNC(=O)c1cccc(O)c1O)CCNC(=O)c1cccc(O)c1O)c1cccc(O)c1O [TRENCAM] |  |  |  | 0.32 ± 0.01 | 
4 | Oc1ccccc1O [catechol, 1,2-dihydroxybenzene] |  |  | greater than 50% |  | formed ferric complexes at physiological pH

Like-named read-outs stand apart in the source and are kept apart here.
